Data on one substance can be found in article PMC12528901.

By UniProt entry, the sequences of proteins in these tests, tags left out. Where a name states a change or a piece, a line headed by the entry shows the natural chain unless it says otherwise. Chains listed by the source or under a name are the forms on record and can include a tag or linker.
UniProt Q8VDZ4: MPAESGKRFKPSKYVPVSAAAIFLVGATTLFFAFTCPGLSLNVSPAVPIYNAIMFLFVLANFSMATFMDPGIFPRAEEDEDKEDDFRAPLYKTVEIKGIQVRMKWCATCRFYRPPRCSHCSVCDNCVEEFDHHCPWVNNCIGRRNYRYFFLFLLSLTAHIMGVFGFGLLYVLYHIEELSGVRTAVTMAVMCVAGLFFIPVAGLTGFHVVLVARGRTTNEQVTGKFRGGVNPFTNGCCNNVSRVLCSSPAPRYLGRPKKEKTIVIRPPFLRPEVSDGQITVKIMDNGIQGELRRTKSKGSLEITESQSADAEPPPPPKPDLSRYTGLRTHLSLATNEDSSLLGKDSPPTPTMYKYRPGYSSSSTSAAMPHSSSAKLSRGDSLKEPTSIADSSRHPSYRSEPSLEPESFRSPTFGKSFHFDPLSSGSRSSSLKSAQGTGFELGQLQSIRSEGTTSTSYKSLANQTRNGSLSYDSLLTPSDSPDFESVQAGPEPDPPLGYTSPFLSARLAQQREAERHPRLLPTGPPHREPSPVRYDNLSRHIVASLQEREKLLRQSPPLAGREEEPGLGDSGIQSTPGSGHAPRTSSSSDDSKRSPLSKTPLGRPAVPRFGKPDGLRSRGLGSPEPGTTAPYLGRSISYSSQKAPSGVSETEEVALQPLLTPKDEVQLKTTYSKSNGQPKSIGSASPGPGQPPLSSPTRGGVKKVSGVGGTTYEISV
HA-Zdhhc5^ΔDHHC (mouse Zdhhc5 lacking the cytosolic loop with the DHHC active site and cysteine rich domain) (Q8VDZ4, form named): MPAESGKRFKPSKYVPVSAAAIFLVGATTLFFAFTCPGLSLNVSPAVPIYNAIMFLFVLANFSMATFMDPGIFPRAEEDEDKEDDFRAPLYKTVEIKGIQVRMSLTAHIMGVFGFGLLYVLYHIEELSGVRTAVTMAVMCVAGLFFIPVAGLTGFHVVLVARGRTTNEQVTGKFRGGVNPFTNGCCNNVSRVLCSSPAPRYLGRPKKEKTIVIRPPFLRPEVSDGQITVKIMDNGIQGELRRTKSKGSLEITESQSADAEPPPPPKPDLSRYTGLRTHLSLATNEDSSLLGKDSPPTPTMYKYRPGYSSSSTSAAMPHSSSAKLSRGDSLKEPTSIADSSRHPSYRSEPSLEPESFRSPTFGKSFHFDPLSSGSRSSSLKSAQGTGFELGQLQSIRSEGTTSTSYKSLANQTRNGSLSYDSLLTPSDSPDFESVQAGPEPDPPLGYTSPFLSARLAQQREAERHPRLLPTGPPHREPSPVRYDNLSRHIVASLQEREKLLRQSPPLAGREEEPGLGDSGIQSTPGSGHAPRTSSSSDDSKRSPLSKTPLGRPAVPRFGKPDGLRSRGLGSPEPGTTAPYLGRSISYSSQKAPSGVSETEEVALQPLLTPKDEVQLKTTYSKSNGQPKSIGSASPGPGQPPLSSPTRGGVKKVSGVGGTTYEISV
HA-Zdhhc5^RNAR (mouse Zdhhc5 Tyr146Ala) (Q8VDZ4, form named): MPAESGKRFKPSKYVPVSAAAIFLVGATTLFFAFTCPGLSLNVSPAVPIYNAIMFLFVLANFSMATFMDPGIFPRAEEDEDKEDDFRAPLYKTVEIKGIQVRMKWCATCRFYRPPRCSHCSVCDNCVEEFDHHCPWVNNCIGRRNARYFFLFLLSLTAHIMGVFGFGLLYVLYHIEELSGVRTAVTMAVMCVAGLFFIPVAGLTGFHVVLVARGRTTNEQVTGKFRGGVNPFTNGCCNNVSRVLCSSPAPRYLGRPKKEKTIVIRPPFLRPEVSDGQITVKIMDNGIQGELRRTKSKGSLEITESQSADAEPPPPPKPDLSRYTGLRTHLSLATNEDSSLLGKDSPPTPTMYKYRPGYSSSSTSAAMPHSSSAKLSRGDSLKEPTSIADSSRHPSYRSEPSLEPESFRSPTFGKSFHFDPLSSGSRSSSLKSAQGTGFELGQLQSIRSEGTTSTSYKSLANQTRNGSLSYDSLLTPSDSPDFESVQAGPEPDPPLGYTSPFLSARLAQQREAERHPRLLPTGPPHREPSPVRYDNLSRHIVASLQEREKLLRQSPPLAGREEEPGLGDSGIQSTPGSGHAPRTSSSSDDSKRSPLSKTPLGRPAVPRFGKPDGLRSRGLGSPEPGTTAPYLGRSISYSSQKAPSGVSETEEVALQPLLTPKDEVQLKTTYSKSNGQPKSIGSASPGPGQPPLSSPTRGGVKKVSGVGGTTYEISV
HA-Zdhhc5^ANYA (mouse Zdhhc5 double mutant) (Q8VDZ4, form named): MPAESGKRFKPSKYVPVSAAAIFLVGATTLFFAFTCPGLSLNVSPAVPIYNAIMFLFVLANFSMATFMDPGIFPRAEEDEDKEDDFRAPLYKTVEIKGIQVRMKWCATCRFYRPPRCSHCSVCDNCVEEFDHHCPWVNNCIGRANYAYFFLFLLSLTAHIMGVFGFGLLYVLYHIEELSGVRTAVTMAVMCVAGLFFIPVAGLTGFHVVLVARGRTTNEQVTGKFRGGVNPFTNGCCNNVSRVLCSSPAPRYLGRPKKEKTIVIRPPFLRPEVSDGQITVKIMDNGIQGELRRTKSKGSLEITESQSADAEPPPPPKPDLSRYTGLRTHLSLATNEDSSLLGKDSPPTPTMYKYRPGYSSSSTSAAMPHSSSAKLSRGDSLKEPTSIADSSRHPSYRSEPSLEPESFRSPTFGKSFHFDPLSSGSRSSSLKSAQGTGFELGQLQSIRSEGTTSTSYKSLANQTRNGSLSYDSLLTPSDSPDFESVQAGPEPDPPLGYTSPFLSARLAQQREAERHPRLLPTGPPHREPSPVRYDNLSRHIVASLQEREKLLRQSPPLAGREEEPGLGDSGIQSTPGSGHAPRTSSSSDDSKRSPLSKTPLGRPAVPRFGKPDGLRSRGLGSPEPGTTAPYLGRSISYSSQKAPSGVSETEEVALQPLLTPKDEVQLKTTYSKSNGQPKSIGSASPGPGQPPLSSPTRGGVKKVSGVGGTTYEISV
HA-Zdhhc5^RNFR (mouse Zdhhc5 with RNYR changed to RNFR) (Q8VDZ4, form named): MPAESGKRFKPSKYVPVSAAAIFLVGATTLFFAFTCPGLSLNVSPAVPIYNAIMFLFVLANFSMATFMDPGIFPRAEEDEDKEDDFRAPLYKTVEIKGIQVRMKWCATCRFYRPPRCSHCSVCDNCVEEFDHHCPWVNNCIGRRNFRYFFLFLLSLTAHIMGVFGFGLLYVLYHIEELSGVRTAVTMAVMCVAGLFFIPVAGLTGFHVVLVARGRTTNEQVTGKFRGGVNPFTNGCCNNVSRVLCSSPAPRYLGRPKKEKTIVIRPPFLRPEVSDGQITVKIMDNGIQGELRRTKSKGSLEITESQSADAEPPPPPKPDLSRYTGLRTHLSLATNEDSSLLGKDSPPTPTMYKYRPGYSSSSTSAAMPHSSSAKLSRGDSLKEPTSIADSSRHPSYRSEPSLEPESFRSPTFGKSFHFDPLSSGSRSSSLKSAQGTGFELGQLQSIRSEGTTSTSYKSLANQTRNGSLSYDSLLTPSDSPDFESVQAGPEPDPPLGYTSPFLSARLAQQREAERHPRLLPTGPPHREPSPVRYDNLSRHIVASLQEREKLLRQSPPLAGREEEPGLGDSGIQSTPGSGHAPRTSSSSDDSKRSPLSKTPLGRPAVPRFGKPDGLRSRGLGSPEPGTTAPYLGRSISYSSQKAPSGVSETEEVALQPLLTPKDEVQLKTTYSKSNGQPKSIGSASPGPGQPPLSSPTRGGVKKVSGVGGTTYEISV
UniProt Q80TN5: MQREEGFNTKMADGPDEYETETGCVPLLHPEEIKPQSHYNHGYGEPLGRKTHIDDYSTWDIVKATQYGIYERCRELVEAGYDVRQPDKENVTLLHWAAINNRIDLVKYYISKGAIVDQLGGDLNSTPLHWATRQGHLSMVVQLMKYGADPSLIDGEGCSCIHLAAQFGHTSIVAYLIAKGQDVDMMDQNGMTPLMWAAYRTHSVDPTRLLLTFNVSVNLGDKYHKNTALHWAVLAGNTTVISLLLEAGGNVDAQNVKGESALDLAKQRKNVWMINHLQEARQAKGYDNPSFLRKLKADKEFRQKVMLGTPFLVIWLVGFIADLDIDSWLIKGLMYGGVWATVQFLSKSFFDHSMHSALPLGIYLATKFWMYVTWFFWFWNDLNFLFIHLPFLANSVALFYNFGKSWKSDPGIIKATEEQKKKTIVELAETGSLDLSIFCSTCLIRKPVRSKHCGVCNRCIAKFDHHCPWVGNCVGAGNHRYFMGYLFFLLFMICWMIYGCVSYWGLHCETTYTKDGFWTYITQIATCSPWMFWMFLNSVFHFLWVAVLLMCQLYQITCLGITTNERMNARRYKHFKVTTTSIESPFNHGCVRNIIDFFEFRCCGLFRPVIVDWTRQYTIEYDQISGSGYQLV
UniProt Q9ESG8: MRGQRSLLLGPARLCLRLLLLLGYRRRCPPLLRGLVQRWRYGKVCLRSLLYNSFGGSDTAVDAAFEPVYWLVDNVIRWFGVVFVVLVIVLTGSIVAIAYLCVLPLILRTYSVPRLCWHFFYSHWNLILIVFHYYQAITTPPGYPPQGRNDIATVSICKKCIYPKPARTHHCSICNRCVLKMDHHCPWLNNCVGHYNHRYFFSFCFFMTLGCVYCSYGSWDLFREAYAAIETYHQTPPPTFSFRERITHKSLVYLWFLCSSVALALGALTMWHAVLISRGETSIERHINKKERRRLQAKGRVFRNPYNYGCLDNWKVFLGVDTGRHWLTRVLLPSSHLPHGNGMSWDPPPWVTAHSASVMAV
UniProt P59267: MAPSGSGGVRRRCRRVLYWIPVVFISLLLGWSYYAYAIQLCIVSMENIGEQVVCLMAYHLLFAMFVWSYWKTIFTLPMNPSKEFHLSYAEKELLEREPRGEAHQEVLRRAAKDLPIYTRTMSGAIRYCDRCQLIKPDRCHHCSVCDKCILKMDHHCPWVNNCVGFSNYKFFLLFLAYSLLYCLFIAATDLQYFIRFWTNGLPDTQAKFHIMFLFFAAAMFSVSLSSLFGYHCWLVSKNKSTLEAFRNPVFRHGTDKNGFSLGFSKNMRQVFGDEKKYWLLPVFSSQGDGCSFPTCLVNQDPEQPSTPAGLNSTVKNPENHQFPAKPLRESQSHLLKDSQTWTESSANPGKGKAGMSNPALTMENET
UniProt Q7Z5G4: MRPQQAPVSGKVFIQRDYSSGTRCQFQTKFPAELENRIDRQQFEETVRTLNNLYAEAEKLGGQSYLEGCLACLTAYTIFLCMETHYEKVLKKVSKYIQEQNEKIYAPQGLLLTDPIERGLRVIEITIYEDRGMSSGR

Holding throughout (assay): co-IP; HA-tagged mouse Zdhhc proteins transfected into 293T ZDHHC5 KO and control cells; lysis in 50 mM Tris-HCl pH 7.4, 150 mM NaCl, 2 mM EDTA, 1% DDM; anti-HA magnetic beads overnight at 4 °C; washes in TBS with 0.5% DDM; blots for endogenous GOLGA7 or ZDHHC9
For assay [1], the target named is HA-Zdhhc5^ΔDHHC (mouse Zdhhc5 lacking the cytosolic loop with the DHHC active site and cysteine rich domain) (mouse) (UniProt Q8VDZ4).
The target of assay [2] is HA-Zdhhc5^RNAR (mouse Zdhhc5 Tyr146Ala) (mouse) (UniProt Q8VDZ4).
Assay [3] has as its target HA-tagged mouse Zdhhc17 (mouse) (UniProt Q80TN5).
Assay [4] has as its target T1, HA-tagged mouse Zdhhc4 (mouse) (UniProt Q9D6H5).
T1 sequence: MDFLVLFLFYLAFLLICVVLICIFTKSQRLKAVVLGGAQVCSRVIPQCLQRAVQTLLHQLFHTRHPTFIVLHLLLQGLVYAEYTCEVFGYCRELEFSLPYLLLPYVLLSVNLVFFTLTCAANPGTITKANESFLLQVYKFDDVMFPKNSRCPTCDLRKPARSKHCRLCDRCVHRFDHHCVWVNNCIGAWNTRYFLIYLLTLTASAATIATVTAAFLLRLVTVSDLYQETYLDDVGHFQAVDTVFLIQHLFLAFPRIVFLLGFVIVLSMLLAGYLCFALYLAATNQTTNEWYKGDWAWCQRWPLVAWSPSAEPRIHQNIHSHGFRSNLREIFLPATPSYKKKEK

Assay [5] addresses T2, HA-tagged mouse Zdhhc24 (mouse) (UniProt Q6IR37).
T2 sequence: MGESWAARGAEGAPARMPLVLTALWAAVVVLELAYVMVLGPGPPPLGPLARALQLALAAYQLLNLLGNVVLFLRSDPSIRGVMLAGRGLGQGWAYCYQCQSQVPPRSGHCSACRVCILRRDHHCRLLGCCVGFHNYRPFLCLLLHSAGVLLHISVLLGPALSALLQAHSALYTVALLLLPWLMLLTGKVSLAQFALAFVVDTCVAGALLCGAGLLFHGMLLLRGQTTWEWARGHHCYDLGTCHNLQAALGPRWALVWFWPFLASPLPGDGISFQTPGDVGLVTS

Assay [6] addresses HA-Zdhhc5^ANYA (mouse Zdhhc5 double mutant) (mouse) (UniProt Q8VDZ4).
In assay [7] the target is HA-tagged mouse Zdhhc16 (mouse) (UniProt Q9ESG8).
Assay [8] has as its target HA-tagged mouse Zdhhc2 (mouse) (UniProt P59267).
Assay [9] addresses T3, HA-tagged mouse Zdhhc23 (mouse) (UniProt Q5Y5T3).
T3 sequence: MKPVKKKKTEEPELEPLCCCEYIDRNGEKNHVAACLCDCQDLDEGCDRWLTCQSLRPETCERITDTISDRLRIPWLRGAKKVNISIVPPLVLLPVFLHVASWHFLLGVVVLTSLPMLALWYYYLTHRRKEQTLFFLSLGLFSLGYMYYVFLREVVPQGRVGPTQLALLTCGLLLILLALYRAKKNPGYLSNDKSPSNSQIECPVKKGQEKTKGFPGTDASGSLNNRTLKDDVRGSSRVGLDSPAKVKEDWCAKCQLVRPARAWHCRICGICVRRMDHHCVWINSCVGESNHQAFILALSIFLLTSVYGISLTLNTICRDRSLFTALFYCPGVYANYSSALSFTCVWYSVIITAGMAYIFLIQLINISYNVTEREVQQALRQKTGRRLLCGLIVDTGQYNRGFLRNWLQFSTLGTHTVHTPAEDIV

In assay [10] the target is HA-Zdhhc5^RNFR (mouse Zdhhc5 with RNYR changed to RNFR) (mouse) (UniProt Q8VDZ4).

These are yes or no findings as the source states them, for the method shown. Binding seen in cells or lysates may run through a third protein. Some entries that bind do so weakly or less than the wild type. For some of these results: Where a sequence is shown, tags or fusion partners need not be part of it.

Consider “endogenous human golgin A7 (GOLGA7) (from UniProt Q7Z5G4 1-137)”, for which the binding entry in assay [1] is given as “no binding”; in assay [2] it was “binds”; in [3] it was “no binding”; in assay [4] it was “no binding”; in assay [5], “no binding”; in [6], “no binding”. Further, the binding entry in assay [7] is given as “no binding”; in assay [8], “no binding”; in [9] it was “no binding”; in assay [10], “binds”.
